Laboratory results: the RNAGym collection of RNA variant scans (doi:10.7554/elife.90254)
The source gives no read counts; variants with many changes may rest on few reads.

B1: LINE1-full (parent)
chain: UACGUAGGUGGUUUUCCCCUGAUAGUGCUAAGGGGGCCUGGAAGUUUGGACUGGGCAGAGCUCAACACAGCGUGGCAAAGUGGCUGUGGCUAGACUGCCUCUCUGGAUUCCUCGUCACUCAGCAGGGCAUCUCUGAGAGAAAUGCC

Variants of: B1
Experiment: self-cleavage, relative activity (ratio to wild type); higher = more cleavage; in vitro, sequencing; the parent is a self-cleaving ribozyme

Variant | self-cleavage
U20A G35A U119C | 1.08
U20A A77U U134C | 0.92
C19U U45A U52A A69C U108A | 0.06
C17U G35U A77G A129G U130A | 0
C17U A64G U73C | 0.3
U20A G32A U46A G54A U96C A129G A140G | 0.01
U20C A22U A77C A79U A136G | 1.53
U20C A94U U108C U115C | 0.63
U20A A69G A78U U96C A138U | 0.05
U20C A31G A43U A129U | 1.56
C16U A57U G83A U130C | 0.02
U20C A22G A117G | 1.02
C17A A79G U81A | 1.24
C19U U39C A77G | 1.76
C17U U26A A57G | 0.53
C19U A43G C51U A65G C116A | 0.08
U20C A64C A79U | 0.49
C17A A50G A57G U143A | 0.77
U20A A31U C118G | 1.03
C19A C66U A121G | 0.03
C18U C28U U104G G125A | 1.87
U15C U100A U132C A142G | 1.16
U20A A50G A65G A121G | 0
U20A G74U A77C | 1.66

Variant | self-cleavage
U20C A22U U81G U108C | 1.78
U20A U45A U46C | 1.19
C18U U47C U132A | 0.84
U20A A43U A69G U81A G88A | 0.04
C19U U52A A117C | 1.69
C19A C98U G125A C131U | 0.67
U20A U39A A42G | 0.56
C19U C84U U104G A138C | 0.3
C17U A22G U45A U108C | 0.67
U20C A117G A141G A142G | 1.72
U20C A65G A142G | 0.08
U20C A50G U52C A140U | 0.56
C16A C18U A30G | 0.5
C18A G34U A65G U85C G127U A142G | 0.07
U20A U47A A65G | 0.07
U20C A69C U132C | 0
U20A A77G A117G | 0.68
U20C A57G U81C A107U | 2.12
U20A U29C A64U A124U | 0.58
U20A C56A A65U A121G A141G | 0.05
U20A A43G A69C U108C | 0
U20A A50U U91G A94C | 0.16
U15C U112A A138G | 1.26
U20C A64U A92G C95U | 0.09

Variant | self-cleavage
U20A U23C G75A | 0.71
C19A U47C A77U A138G A140G C146A | 2.26
C19U G40A A69G C95U | 0.06
C19U U62C A141U | 0.06
U20A A69G U109A U134A A142G | 0.07
U15C U104C A138U | 1.4
C19U A121G A140G A142U | 0.7
C18A A78G C99U C145G | 0.45
U20A A42G U46C | 1.53
U20A U45C A94U A117U A136U A138G | 0.42
U15G U39C A67G | 0
C19U G32A U45C U85C A107G U143C | 0
U20C A67G A117G A124U | 0
C16U U96C U134G | 0.12
C19U G25A A69U C98U | 0.09
U20C A30G G33A G40A A77U U100C A142G | 0.79
U20A U46A U119C U143A | 1.01
C19U U52A U143A | 0.9
U20C A42G U91A | 0.61
C16U C76A G88U U104C U134A A141G | 0.04
U15C U132C A138G | 2.85
U20A C90U U102C A121U | 0.03
C19U U39G U73A U102C | 1.88
C19U U46C U52C A94G | 0

Variant | self-cleavage
C19U G75A A129G | 1.58
U20C A30G U96A A141U | 0.13
U20A A78U U85A | 0.13
U20A U102C U143C | 1.65
C19U U26A A77U | 0.73
C16U G35C U52A U100A C131U A138G | 1.02
U20C A77G G114A U119C | 2.96
C17U A78G G139A | 1.07
U15G U81C G114A A142G | 1.31
C17U U62C A64C | 0.12
C17U U109C U132C | 0.6
U20C A59G G93A A141G | 0.12
C17U U52A C61U A92G U115A A140G | 0.03
C16A G88A A138G | 0.06
U20C C28U A57G A117G C118U A124U A136U | 0.92
C19U U26A U119C C131U | 1.13
U15C U102A U134C | 0.66
U20A U45A U87C U96C | 0.29
C18A G33A U85C U143C | 0.19
U20C A69U A121G | 0.13
U20A U62A A142G | 0.04
C16U A69U U104C A141G | 0.06
U20A G36C U62C | 0.09
C19A C103A U130A | 2.48

Variant | self-cleavage
C19U A50G U132C U143C | 0.84
U20A A94U U134C | 0.35
U20C A42G A79G | 2.04
C19U A67G C71U | 0.17
C18A C71U A78G | 0.32
U20A U87C U132C | 0
C17U U26A A78C A79U G114A | 1.15
C18A U81A U85A A138U | 0.04
U20A A64U U134G | 0.41
C19U A43U G53A A129G | 1.66
C19A C38U U130C | 0.64
U20A U119C A129U | 1.9
U20C A65G A77G A138G | 0
U20A A43G U102A A141G | 1.08
C16U G35A U47C A79G | 0.89
U15C U109C A138G | 1.15
C17G U115A A124G | 0.54
U20C A43G U87A U104C | 0.15
C18U A24G C28A U39A A57G U100C | 0.29
C16U A64G A94U | 0.28
C16U A50U G55U | 0.03
U20A U112A G135A | 1.47
C19A A67U U73A G74A G93U U100C | 0.04
C18A U73A U143A | 0.66

Variant | self-cleavage
C19U A43G A94G A140G | 0
U20C A136C A138G A140U | 0.46
C17U U46C C95U A121G | 0.4
U20C C56U U96C G114A | 0.01
C19A U102C U132C | 1.02
C18U C61A U104C U143C | 0.03
U20A U85C U134C | 0
U20C A22U G27U U73A U91C | 0
U20A U104C A117U U132C U134A A140G | 0
U20A U109C A129U A140G | 0.47
U20A U39A U85A | 0.1
C17U A94G U115A | 0.4
U15G U112C A129G A140G A142G | 0
C19U U85A A138G | 0.16
U20A U130C U143A | 1.13
C19U U47A A94G C98A U109C | 0.02
U20A U85C U132C | 0
U20A A64C U132C | 0.25
C19U A69G U100C A141G | 1.15
U15C U108A A121G | 1.31
U20C A107G U119C A124U A136U | 0.84
U20C A64U A92G U132C | 0.15
U20A U47C A136G A138G | 2.63
U15C U104C A141G | 1.68

Variant | self-cleavage
C17A A67U U81C | 0
U20C A79G U112C | 0.63
U20C A64U A92U | 0.31
C19U U119A U134C | 1.32
U20A U81A U85A A92G A121G | 0.32
U20C A78U U81A | 1.5
U20C A59U A67C | 0.07
U20C A50U U115C A142G | 1.36
U20C A42G A77G G93A U96A A124U | 0.06
U20A U46A A57U | 0.14
C16U A22G U112C | 2.04
C18A A24G U73C A121U A140G | 0.92
U20C A142G U143A | 1.5
U15C U104A U115A C128U | 1.85
C19G U52A A124G | 0.98
C17G A117G A124G | 1.39
U20A G36A U52G C128U | 1.24
U20C A78G A136G | 2.38
C19U U96C A141U | 0.05
U20A A31U A69G A79G U100A | 0
U20C C38U U143C | 1.34
C19U U20C U45C | 1.39
U20A A22G U112C | 1.44
